Measured values: the supplement of paper PMC3724861
This is one part of the list.

These sequences were tested on T1, Caupolican (Caup) homeodomain DNA-binding domain (assay: PBM E-score (8-mer, recovered from the published 9-mer minima) (E-score (dimensionless, -0.5 to 0.5)); Drosophila protein; higher = stronger relative binding preference, active = 0.31 or more).
T1 sequence: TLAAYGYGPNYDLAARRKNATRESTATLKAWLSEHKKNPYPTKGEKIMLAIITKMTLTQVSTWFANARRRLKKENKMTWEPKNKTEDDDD
Outline: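 Caup's homeodomain DNA-binding domain (residues 214-303) was produced by in vitro transcription and translation and applied at 100 nM to custom-designed protein binding microarrays. Each value is an enrichment score giving relative binding preference for a short DNA word; higher means stronger. Published 9-mer scores were the minimum of their two constituent 8-mer scores, and the 8-mer values were recovered from those minima. A cutoff of 0.31 marks candidate binding sequences.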

| Sequence | PBM E-score |
| --- | --- |
| ATAGTGGC | inactive: -0.0179 |
| CTCACGAC | inactive: -0.0934 |
| CCCAAAAG | inactive: -0.172 |
| AAGGCTGG | inactive: -0.19 |
| AGTGGAGA | inactive: -0.0688 |
| GTCCCAGA | inactive: -0.152 |
| CGAACATC | inactive: 0.279 |
| AGTCTGGC | inactive: -0.101 |
| TACGCGCA | inactive: -0.0283 |
| AATACTCA | inactive: 0.143 |
| ACGACAGT | inactive: 0.094 |
| CCTCAGAG | inactive: -0.189 |
| CCCGTGCA | inactive: -0.0955 |
| GATTGAAA | inactive: 0.0895 |
| ACATTATG | inactive: 0.222 |
| AGGTGTGC | inactive: -0.00906 |
| AGCCTTAG | inactive: -0.0876 |
| AACATACT | active: 0.31 |
| CATAAGCA | inactive: -0.039 |
| TAACACCA | inactive: 0.247 |
| CTAGTATC | inactive: 0.0918 |

| Sequence | PBM E-score |
| --- | --- |
| ACATGTTA | active: 0.452 |
| CCGATAAG | inactive: 0.00966 |
| GATCTAGC | inactive: -0.0556 |
| AATTTGAA | inactive: 0.0337 |
| AGCCGAGG | inactive: -0.125 |
| CGACGCTA | inactive: -0.0133 |
| CTATATGC | ≥ 0.159 |
| AGATCAAT | inactive: 0.0507 |
| AGGTCTAT | inactive: 0.049 |
| TCTCGAGA | inactive: 0.0237 |
| ACCGCAGA | inactive: -0.078 |
| GCTTATAA | inactive: -0.0136 |
| CAGCTGGC | inactive: -0.219 |
| CCAATGGA | inactive: -0.156 |
| GAAGCATC | inactive: -0.0727 |
| CGTTGACC | inactive: 0.023 |
| CTGGAACC | inactive: -0.156 |
| AGTCAGAT | inactive: 0.114 |
| AACCAGCT | ≥ 0.1 |
| CTTAACGC | inactive: -0.112 |
| ACCCCAGG | inactive: -0.228 |

| Sequence | PBM E-score |
| --- | --- |
| GAGTTAAC | inactive: 0.12 |
| CCAGGCGC | inactive: -0.315 |
| CGTGATTA | inactive: 0.173 |
| AGGCTATG | inactive: 0.029 |
| CAGTGCGC | inactive: -0.161 |
| ATGTGTAA | active: 0.332 |
| GCTCGTCC | inactive: -0.0479 |
| GAACATCA | inactive: 0.259 |
| ACGACGAC | inactive: -0.0582 |
| ACGTGCGC | inactive: -0.0723 |
| TAAAAAGA | inactive: 0.0988 |
| GCCCTATA | inactive: -0.047 |
| ATCCGGCC | inactive: -0.201 |
| CTTGACAC | inactive: 0.141 |
| CATGCTGA | inactive: 0.146 |
| TTCCCAAA | inactive: 0.0457 |
| CAACGCCA | inactive: 0.0121 |
| AGAACATA | active: 0.318 |
| ACTTCAGG | inactive: -0.0156 |
| CATACTGG | inactive: 0.042 |
